PubChem BioAssay AID686978 (National Center for Advancing Translational Sciences (NCATS), 2013)
Among all 420,000 compounds or so, about 64,000 (15%) were called active. The shares of active, inactive and inconclusive entries below differ from those in the screen. Calls follow the shape of the dose curve; as a rule, active = well fitted inhibition curve with a large enough effect; inconclusive = small, poorly fitted or top-dose-only effect; inactive = flat fitted curve, though single readings scatter. No potency is given beside an inconclusive call; the fits are too rough.

test: qHTS for Inhibitors of human tyrosyl-DNA phosphodiesterase 1 (TDP1): qHTS in cells in absence of CPT; settings: DT40 Tdp1-/- hTDP1 cells, no CPT, ATP luminescence, 48 h; activity change, negative = growth inhibition: at 46.2 µM (top of the series) unless noted; also: nearly all actives have a fitted effect of over 55% in size
Outline: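 DT40 Tdp1-/-;hTDP1 cells, no CPT (DMSO vehicle only), 400 cells/well; compounds pin-transferred; ≥48 hr, 37 °C; CellTiter-Glo 30 min RT dark, luminescence read.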
% is scaled to controls: 0 for no effect and ±100 for the full control effect; potency is read from the fitted curve at half-maximal effect; tags tell the direction and shape of the fitted curve.

Compound | Potency | activity change, negative = growth inhibition
CCOC(=O)/C=C1\CN(CCC(C)C)S(=O)(=O)c2ccccc21 | inconclusive [inhibitor, single point] | –
Cc1ccc(-c2nnn(CC(=O)N(c3ccccc3)C(C(=O)NCC3CCCO3)c3ccc(F)cc3)n2)o1 (centres undefined) | – | inactive: 6.11%
O=C(NCC1CCCO1)c1c(O)c2cccc3c2n(c1=O)CC3 (centres undefined) | inconclusive [inhibitor, partial curve] | –
COc1cccc(Nc2nc3ccccc3c3nncn23)c1 | active: 25.9 µM | –
COc1ccc(N2CCN(C(=O)CCC(=O)N3CCOc4ccc(C)cc43)CC2)cc1 | inconclusive [inhibitor, single point] | –
COc1cccc(NC(=O)N(CCC(C)C)C2CCN(C(C)C)CC2)c1 | inconclusive [inhibitor, single point] | –
C/C(=N\NC(=O)c1c(Cl)cnn1C)c1cccc(NC(=O)COc2ccccc2)c1 | inconclusive [inhibitor, partial curve, poor fit] | –
Cc1ccc(SCc2cc(=O)[nH]c(N3CCN(Cc4ccc5c(c4)OCO5)CC3)n2)cc1 | inconclusive [inhibitor, single point] | –
Cc1ccc(-c2nc(N3CCN(C)CC3)c3ccccc3n2)cc1 | inconclusive [inhibitor, single point] | –
CN1CCN(c2nnc(-c3ccc(F)cc3)c3ccccc23)CC1 | – | inactive: 0.898%
CCC12CN3CCN(CC(C3)/C1=N\NC(=O)c1ccc(Cl)cc1)C2 | inconclusive [inhibitor, single point] | –
COc1ccc2ccccc2c1/C=N/NC(=O)c1cccc(Br)c1 | inconclusive [inhibitor, partial curve, poor fit] | –
NC(=O)C1CCN(CC(=O)Nc2cc(Cl)ccc2Oc2ccccc2)CC1 | inconclusive [inhibitor, single point] | –
COc1ccccc1NS(=O)(=O)c1cc(C(=O)NC2CC(C)(C)NC(C)(C)C2)ccc1Cl | – | inactive: 2.71%
CCOC(=O)c1c(NC(=O)CSc2n[nH]c(N)n2)sc(CC)c1C | – | inactive: -2.05%
Cc1ccc(C(=O)Nc2cccc(C(F)(F)F)c2)cc1NC(=O)c1nccn1C | inactive | –
O=c1c2ccccc2nnn1CSc1nnnn1-c1ccc(O)cc1 | inconclusive [inhibitor, single point] | –
Cc1c(NC(=O)CN2C(=O)C(=O)N(Cc3ccccc3)C2=O)c(=O)n(-c2ccccc2)n1C | – | inactive: 7.02%
COc1ccc(N2CCN(C(=O)CSc3nnc(C)c(=O)[nH]3)CC2)cc1 | – | inactive: -14.8%
